Counter-ions that a name gives are not always drawn.
Columns and labels:
Experiment in all cases: microbe, parasite or virus in culture
[1] = system: HIV-1 K103N RT mutant; details: Human immunodeficiency virus 1, HeLa, read-out: IC50 against K103N, HeLa cell assay
[2] = system: HIV-1 V106A RT mutant; details: Human immunodeficiency virus 1, HeLa, read-out: IC50 against V106A, HeLa cell assay
[3] = system: HIV-1 Y181C RT mutant; details: Human immunodeficiency virus 1, HeLa, read-out: IC50 against Y181C, HeLa cell assay
[4] = system: HIV-1 Y188L RT mutant; details: Human immunodeficiency virus 1, HeLa, read-out: IC50 against Y188L

Measured: IC50

N#Cc1cc(Br)cc(Oc2c(Cl)ccc(CNC(=O)c3[nH]cnc3Cl)c2F)c1 [Example 150, N-({3-[(3-bromo-5-cyanophenyl)oxy]-4-chloro-2-fluorophenyl}methyl)-4-chloro-1H-imidazole-5-carboxamide]
< 10 nM: all assays above

CCCc1cc(C#N)cc(Oc2c(Cl)ccc(CNC(=O)c3[nH]cnc3Cl)c2F)c1 [Example 151, 4-chloro-N-({4-chloro-3-[(3-cyano-5-propylphenyl)oxy]-2-fluorophenyl}methyl)-1H-imidazole-5-carboxamide]
< 10 nM: all assays above

N#Cc1cc(Oc2c(Cl)ccc(CNC(=O)c3[nH]cnc3Cl)c2F)cc(C2CC2)c1 [Example 152, 4-chloro-N-({4-chloro-3-[(3-cyano-5-cyclopropylphenyl)oxy]-2-fluorophenyl}methyl)-1H-imidazole-5-carboxamide]
< 10 nM: all assays above

C=CCc1cc(C#N)cc(Oc2c(Cl)ccc(CNC(=O)c3[nH]cnc3Cl)c2F)c1 [Example 156, 4-chloro-N-[(4-chloro-3-{[3-cyano-5-(2-propen-1-yl)phenyl]oxy}-2-fluorophenyl)methyl]-1′-1H-imidazole-5-carboxamide]
< 10 nM: all assays above

N#Cc1cc(CC2CC2)cc(Oc2c(Cl)ccc(CNC(=O)c3[nH]cnc3Cl)c2F)c1 [Example 157, 4-chloro-N-[(4-chloro-3-{[3-cyano-5-(cyclopropylmethyl)phenyl]oxy}-2-fluorophenyl)methyl]-1H-imidazole-5-carboxamide]
< 10 nM: all assays above

C=C(C)c1cc(C#N)cc(Oc2c(Cl)ccc(CNC(=O)c3[nH]cnc3Cl)c2F)c1 [Example 158, 4-chloro-N-[(4-chloro-3-{[3-cyano-5-(1-methylethenyl)phenyl]oxy}-2-fluorophenyl)methyl]-1H-imidazole-5-carboxamide]
< 10 nM: all assays above

CC(C)c1cc(C#N)cc(Oc2c(Cl)ccc(CNC(=O)c3[nH]cnc3Cl)c2F)c1 [Example 159, 4-chloro-N-[(4-chloro-3-{[3-cyano-5-(1-methylethyl)phenyl]oxy}-2-fluorophenyl)methyl]-1H-imidazole-5-carboxamide]
< 10 nM: all assays above

N#Cc1cc(Cl)cc(Oc2c(Cl)ccc(CNC(=O)c3[nH]ccc3Br)c2F)c1 [Example 204, 3-bromo-N-({4-chloro-3-[(3-chloro-5-cyanophenyl)oxy]-2-fluorophenyl}methyl)-1H-pyrrole-2-carboxamide]
< 10 nM: all assays above

N#Cc1cc(Cl)cc(Oc2c(Cl)ccc(CNC(=O)c3[nH]c(N)nc3Cl)c2F)c1 [Example 230, 2-amino-4-chloro-N-({4-chloro-3-[(3-chloro-5-cyanophenyl)oxy]-2-fluorophenyl}methyl)-1H-imidazole-5-carboxamide trifluoroacetate]
< 10 nM: all assays above

Cc1nc(Cl)c(C(=O)NCc2ccc(Br)c(Oc3cc(Cl)cc(C#N)c3)c2F)[nH]1 [Example 231, N-({4-bromo-3-[(3-chloro-5-cyanophenyl)oxy]-2-fluorophenyl}methyl)-4-chloro-2-methyl-1H-imidazole-5-carboxamide trifluoroacetate]
< 10 nM: all assays above

Cc1nc(Br)c(C(=O)NCc2ccc(Br)c(Oc3cc(Cl)cc(C#N)c3)c2F)[nH]1 [Example 233, 4-bromo-N-({4-bromo-3-[(3-chloro-5-cyanophenyl)oxy]-2-fluorophenyl}methyl)-2-methyl-1H-imidazole-5-carboxamide]
< 10 nM: all assays above

Cc1nc(Br)c(C(=O)NCc2cc(Br)c(Br)c(Oc3cc(Cl)cc(C#N)c3)c2F)[nH]1 [Example 234, 4-bromo-N-({4,5-dibromo-3-[(3-chloro-5-cyanophenyl)oxy]-2-fluorophenyl}methyl)-2-methyl-1H-imidazole-5-carboxamide trifluoroacetate]
< 10 nM: all assays above

N#Cc1cc(Cl)cc(Oc2c(Cl)ccc(CNC(=O)c3[nH]c(N)nc3Br)c2F)c1 [Example 235, 2-amino-4-bromo-N-({4-chloro-3-[(3-chloro-5-cyanophenyl)oxy]-2-fluorophenyl}methyl)-1H-imidazole-5-carboxamide trifluoroacetate]
< 10 nM: all assays above

N#Cc1cc(Cl)cc(Oc2c(Br)ccc(CNC(=O)c3[nH]c(N)nc3Br)c2F)c1 [Example 237, 2-amino-4-bromo-N-({4-bromo-3-[(3-chloro-5-cyanophenyl)oxy]-2-fluorophenyl}methyl)-1H-imidazole-5-carboxamide trifluoroacetate]
< 10 nM: all assays above

N#Cc1cc(Cl)cc(Oc2c(Br)ccc(CNC(=O)c3nc(N)[nH]c3Cl)c2F)c1 [Example 239, 2-amino-N-({4-bromo-3-[(3-chloro-5-cyanophenyl)oxy]-2-fluorophenyl}methyl)-4-chloro-1H-imidazole-5-carboxamide]
< 10 nM: all assays above

Cc1cc(C#N)cc(Oc2c(Br)ccc(CNC(=O)c3[nH]c(N)nc3Cl)c2F)c1 [Example 240, 2-amino-N-({4-bromo-3-[(3-cyano-5-methylphenyl)oxy]-2-fluorophenyl}methyl)-4-chloro-1H-imidazole-5-carboxamide trifluoroacetate]
< 10 nM: all assays above

N#Cc1cc(Cl)cc(Oc2c(Br)ccc(CNC(=O)c3[nH]c(CO)nc3Cl)c2F)c1 [Example 241, N-({4-bromo-3-[(3-chloro-5-cyanophenyl)oxy]-2-fluorophenyl}methyl)-4-chloro-2-(hydroxymethyl)-1H-imidazole-5-carboxamide]
< 10 nM: all assays above

C=CCc1cc(C#N)cc(Oc2c(Cl)ccc(CNC(=O)c3[nH]c(C)nc3Cl)c2F)c1 [Example 248, 4-chloro-N-[(4-chloro-3-{[3-cyano-5-(2-propen-1-yl)phenyl]oxy}-2-fluorophenyl)methyl]-2-methyl-1H-imidazole-5-carboxamide trifluoroacetate]
< 10 nM: all assays above

CCc1ccc(CNC(=O)c2[nH]c(C)nc2Cl)c(F)c1Oc1cc(Cl)cc(C#N)c1 [Example 249, 4-chloro-N-({3-[(3-chloro-5-cyanophenyl)oxy]-4-ethyl-2-fluorophenyl}methyl)-2-methyl-1H-imidazole-5-carboxamide]
< 10 nM: all assays above

CCc1ccc(CNC(=O)c2[nH]cnc2Cl)c(F)c1Oc1cc(Cl)cc(C#N)c1 [Example 250, 4-chloro-N-({3-[(3-chloro-5-cyanophenyl)oxy]-4-ethyl-2-fluorophenyl}methyl)-1H-imidazole-5-carboxamide]
< 10 nM: all assays above

CCc1ccc(CNC(=O)c2[nH]c(N)nc2Cl)c(F)c1Oc1cc(Cl)cc(C#N)c1 [Example 251, 2-amino-4-chloro-N-({3-[(3-chloro-5-cyanophenyl)oxy]-4-ethyl-2-fluorophenyl}methyl)-1H-imidazole-5-carboxamide]
< 10 nM: all assays above

N#Cc1cc(Cl)cc(Oc2c(C(F)F)ccc(CNC(=O)c3[nH]cnc3Cl)c2F)c1 [Example 252, 4-chloro-N-{[3-[(3-chloro-5-cyanophenyl)oxy]-4-(difluoromethyl)-2-fluorophenyl]methyl}-1H-imidazole-5-carboxamide]
< 10 nM: all assays above
